Test results as given in PubChem BioAssay AID360 (National Center for Advancing Translational Sciences (NCATS), 2006).
About 550 (1.1%) of roughly 48,000 compounds were called active. Roughly 4% stayed inconclusive and do not appear here. No stated cut-off is given here; in the data, active means potency below about 15 µM; inconclusive means mostly about 16 µM to 33 µM; inactive means weaker than that. The list shows a part of the results.

Target: Lysosomal acid glucosylceramidase (Homo sapiens) (UniProt P04062)
Test: Glucocerebrosidase;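 further: the screen sought inhibitors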
Conditions: purified enzyme, resorufin glucoside fluorescence (screen aimed at inhibitors), 20 min; series mostly up to 77 µM
Procedure, shortened: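 Compounds titrated against 0.2 nM normal enzyme, 30 uM resorufin beta-D-glucopyranoside substrate, citrate/phosphate buffer with taurocholate and tween-20, pH 5.9. Reaction ran 20 min at room temperature; fluorescence (Ex 548/Em 600) gave AC50.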
Potency means the concentration at half of the fitted maximal effect.

Sequence of UniProt P04062 (P04062 whole entry, looked up): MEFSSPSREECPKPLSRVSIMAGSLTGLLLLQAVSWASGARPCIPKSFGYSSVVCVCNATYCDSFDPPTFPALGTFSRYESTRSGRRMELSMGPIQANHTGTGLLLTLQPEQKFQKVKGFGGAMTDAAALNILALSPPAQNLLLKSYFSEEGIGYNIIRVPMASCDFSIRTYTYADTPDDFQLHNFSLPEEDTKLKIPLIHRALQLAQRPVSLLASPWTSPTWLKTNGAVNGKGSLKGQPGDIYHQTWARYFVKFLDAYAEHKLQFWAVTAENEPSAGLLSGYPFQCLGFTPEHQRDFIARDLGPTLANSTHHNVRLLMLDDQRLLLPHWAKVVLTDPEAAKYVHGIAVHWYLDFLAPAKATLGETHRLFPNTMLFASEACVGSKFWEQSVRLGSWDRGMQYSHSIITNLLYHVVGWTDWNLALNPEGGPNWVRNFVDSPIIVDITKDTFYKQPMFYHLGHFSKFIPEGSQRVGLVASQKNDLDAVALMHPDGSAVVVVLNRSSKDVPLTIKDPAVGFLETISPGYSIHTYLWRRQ

Potency, inactive:
CCCN1CN(Cc2ccccc2)CC2=C1CC(C)(C)CC2=O > 76.9 µM
O=C(CSc1nnc(NC(=O)c2ccco2)s1)NC1CCCCC1 > 76.9 µM
Cc1noc(C)c1Cn1nc(C(=O)O)c2ccccc2c1=O > 76.9 µM
CCN1C(=S)SC(=O)C1=C1C=C(C)N(CCO)C(C)=C1 > 76.9 µM
COc1ccc(CN2C(=O)CN(C3CCCCCC3)C(=O)C2c2ccc(OC)c(OC)c2)cc1 (configuration not stated) > 76.9 µM
Cc1sc2ncn(CC(=O)N(CC(=O)NC3CCCC3)Cc3cccs3)c(=O)c2c1C > 76.9 µM
Cc1ccc(-n2c(C)nc3oc4ccccc4c(=O)c3c2=O)cc1 > 76.9 µM
CCCS(=O)(=O)N1CCCC(C(=O)NCCCN2CCN(c3ccccc3F)CC2)C1 (configuration not stated) > 76.9 µM
Cc1cccc(NC(=O)CSc2nnc(CCCCCNC(=O)OC(C)(C)C)o2)c1C > 76.9 µM
N#Cc1nc(-c2ccc(OCc3ccc(Cl)cc3)cc2)oc1N1CCC(C(N)=O)CC1 > 76.9 µM
COc1ccc(-n2c(SCC#N)nnc2-c2cccnc2)cc1 > 76.9 µM
Cc1cc(NC(=O)CCC2CCCC2)no1 > 76.9 µM
COC(=O)C1=C(C)C(c2ccc(OC)cc2OC)NC(=O)N1 (configuration not stated) > 76.9 µM
O=C(Cn1nc(Cl)nc1Cl)c1ccc2c(c1)OCCO2 > 76.9 µM
CCCCC(=O)Nc1ccc(C(=O)N2CCCC(C(=O)OCC)C2)cc1 (configuration not stated) > 76.9 µM
CCOC(=O)CN1C(=O)COc2ccc(Cl)cc21 > 76.9 µM
Cc1ccc(Oc2nsnc2N2CCOCC2)cc1 > 76.9 µM
CCN1CCCC1Cn1cnc2c([nH]c3ccc(Cl)cc32)c1=O (configuration not stated) > 76.9 µM
Cc1cc(NC(=O)CCC(=O)N(Cc2ccco2)C2(C(=O)NC3CCCCC3)CCN(C)CC2)no1 > 76.9 µM
O=C(O)C1C2CCC(O2)C1C(=O)NCc1ccncc1 (configuration not stated) > 76.9 µM
CN=C1SC(CC(=O)Nc2cc(Cl)ccc2Cl)C(=O)N1C (configuration not stated) > 76.9 µM
Cc1nnc(SCc2cnc(-c3ccccc3)o2)[nH]c1=O > 76.9 µM
Cc1cc(C)nc(NS(=O)(=O)c2ccc(NC(=O)NC3CCCCC3)cc2)n1 > 76.9 µM
Cc1csc(NC(=O)CNC(=O)OCc2ccccc2)n1 > 76.9 µM
CCOC(=O)c1cc(C(C)=O)c(=O)n(C)c1N > 76.9 µM
CCc1ccc(-c2nn[nH]n2)cc1 > 76.9 µM
CCCOc1ccc(Cc2nn3c(=O)/c(=C/c4ccco4)sc3nc2=O)cc1 > 76.9 µM
O=C(CN(Cc1cccs1)C(=O)CNC(=O)c1ccco1)NC1CCCCC1 > 76.9 µM
COc1ccccc1C(c1nnnn1C1CCCC1)N1CCN2CCCC2C1 (configuration not stated) > 76.9 µM
CN1C(=S)SC(/[N+]([O-])=C/c2cccnc2)C1(C)C (configuration not stated) > 76.9 µM
CCOC(=O)c1c(NC(=O)CC)sc(C(C)=O)c1C > 76.9 µM
COc1ccc(C(=O)n2cnc(N)n2)cc1 > 76.9 µM
NC(=O)C1CCN(C(c2ccccc2Cl)c2nnnn2Cc2ccc3c(c2)OCO3)CC1 (configuration not stated) > 76.9 µM
Cc1ccc(NC2=NC(c3ccco3)n3c(nc(C)cc3=O)N2)c(C)c1 (configuration not stated) > 76.9 µM
Cc1ccc(C(=O)Nc2nc3c(s2)CCCC3)o1 > 76.9 µM
Cn1c(=O)n(CC(=O)NC2CCCCC2)c(=O)c2ccccc21
O=c1[nH][nH]c2nc(C(F)(F)F)cc(C(F)(F)F)c12 > 76.9 µM
Cn1c(SCCCC(=O)c2ccccc2)nnc1-c1ccncc1 > 76.9 µM
O=C(COC(=O)c1cccs1)Nc1ccccc1 > 76.9 µM
CC1(C)CC(O)C(C)(C)N1O (configuration not stated) > 76.9 µM
Cc1nc2cc(NC(=O)N3c4ccccc4CC3C)ccc2o1 (configuration not stated) > 76.9 µM
CC(C)CN(Cc1cc2ccccc2[nH]c1=O)C(=O)c1cccnc1 > 76.9 µM
CC(C)C(c1nnnn1Cc1ccc(F)cc1)N1CCN(C(=O)c2ccco2)CC1 (configuration not stated) > 76.9 µM
Cc1ccc(S(=O)(=O)N2CCC(C(=O)N3CCC(C(=O)NCC4CCCO4)CC3)CC2)cc1 (configuration not stated) > 76.9 µM
CCCCN(CC)CCNC(=O)C1c2cc(OC)c(OC)cc2C(=O)N2CCc3ccccc3C12 (configuration not stated) > 76.9 µM
CN(C)C(CNC(=O)CN1C(=O)NC2(CCc3ccccc32)C1=O)c1ccco1 (configuration not stated) > 76.9 µM
Cc1cc(NC(=O)CSc2nnc3c(C)cc4cc(C)c(C)cc4n23)no1 > 76.9 µM
O=C(O)CCC(=O)c1c[nH]c2ccccc12 > 76.9 µM
Cc1nn(Cc2ccc(Cl)c(Cl)c2)c(C)c1NC(=O)c1cc(-c2ccco2)on1 > 76.9 µM
COc1cc(C2C(C#N)=C(N)OC3=C2C(=O)CC(C)(C)C3)ccc1OC(=O)N1CCOCC1 (configuration not stated) > 76.9 µM
COCc1nc2ccccc2n1Cc1ccccc1 > 76.9 µM
Cc1ccc(S(=O)(=O)N2CCCCC2)cc1C(=O)Nc1ncn[nH]1 > 76.9 µM
Fc1ccc(CSc2ncnc3c2oc2ccccc23)cc1
CCCNCc1cc(OCC)c(OCC(N)=O)cc1Br > 76.9 µM
Cc1noc(C)c1C(=O)N1CCN(c2ncccn2)CC1 > 76.9 µM
O=C(OC1CCOC1=O)c1ccc(S(=O)(=O)N2CCCCCC2)cc1 (configuration not stated) > 76.9 µM
CC1CN(c2nc3ccccc3nc2C(C#N)C(=O)NCc2ccc3c(c2)OCO3)CC(C)O1 (configuration not stated) > 76.9 µM
CCOC(=O)c1c(C)[nH]c(C(=O)COC(=O)c2ccncc2)c1C > 76.9 µM
O=C(c1ccccc1)c1cc2ccccc2o1 > 76.9 µM
CSc1cccc(NC(=O)C2CCCN(S(=O)(=O)c3ccc(F)cc3)C2)c1 (configuration not stated) > 76.9 µM
CCOC(=O)C1CCCN(C/C(O)=C(\C#N)c2nc(-c3ccccc3)cs2)C1 (configuration not stated) > 76.9 µM
O=C(CCc1nc2ccccc2s1)N1CCN(S(=O)(=O)c2cccs2)CC1 > 76.9 µM
Cc1c(-c2cccs2)[n+](=O)c2c(n1[O-])CCC2 > 76.9 µM
O=C(O)CCC(=O)c1cccc2ccccc12 > 76.9 µM
CSc1nc2c(c(=O)n1-c1ccc(F)cc1)SCC2 > 76.9 µM
CCOC(=O)C1=C(C)NC(=O)C(C#N)C1c1ccco1 (configuration not stated) > 76.9 µM
CSc1ncccc1C(=O)OCc1ccccc1F > 76.9 µM
CC(=O)c1c(C)[nH]c(C(=O)OC2CCOC2=O)c1C (configuration not stated) > 76.9 µM
O=C(Cn1nnc2c(cnn2-c2ccccc2)c1=O)N1CCN(c2ccccc2F)CC1 > 76.9 µM
CCOc1ccccc1Nc1nnc(Cc2ccccc2Cl)c(=O)[nH]1 > 76.9 µM
CCCNC(=O)CC1Sc2ccccc2NC1=O (configuration not stated) > 76.9 µM
CCCn1c(SCC(=O)Nc2c(C)cccc2C)nnc1C(C)C > 76.9 µM
O=C(NCc1cccnc1)C1CCN(C(=O)c2ccc(Cl)cc2Cl)CC1 > 76.9 µM
O=C(Nc1ccccn1)N1CCOCC1 > 76.9 µM
O=C(NC(=Nc1ccccc1)N1CCOCC1)Nc1ccccc1 > 76.9 µM
COc1ccc(S(=O)(=O)N(C)CC(=O)Nc2ccccc2SC)cc1 > 76.9 µM
CC1=C(C(=O)N2CCOCC2)C(c2ccccc2F)C2=C(CC(C)(C)CC2=O)N1 (configuration not stated) > 76.9 µM
CCOC(=O)C1CCCN(Cc2ccccc2F)C1 (configuration not stated) > 76.9 µM
CCOC(=O)C1CCN(S(=O)(=O)c2ccc3c(c2)CCCN3C(C)=O)CC1 > 76.9 µM
Cc1noc(C)c1COc1cccc(C(=O)OCCOc2ccc(F)cc2)c1 > 76.9 µM
Cc1ccccc1OC(C)c1nc(-c2ccccc2)no1 (configuration not stated) > 76.9 µM
O=C(CSc1nnc(-c2ccncc2)n1-c1ccc(F)cc1)NC(=O)NCc1ccco1 > 76.9 µM
CCCn1c(N)c(C(=O)CN2CCN(S(=O)(=O)c3cccs3)CC2)c(=O)[nH]c1=O > 76.9 µM
COc1ccc(-c2noc(CCCC(=O)NCCc3ccccc3)n2)cc1OC > 76.9 µM
O=c1[nH]c(C2CCCN(S(=O)(=O)c3ccccc3)C2)nc2c1nnn2Cc1ccccc1F (configuration not stated)
CN(CC(=O)NCc1ccc(Cl)cc1)S(=O)(=O)c1cccc2nsnc12 > 76.9 µM
CC(C)c1ccc(OCc2nc(-c3ccccn3)no2)c(Br)c1 > 76.9 µM
CN(C)c1ccc(NC(=O)CN2CCN(CC(=O)Nc3ccc(F)cc3)CC2)cc1 > 76.9 µM
Cn1c2c(c(=O)n(C)c1=O)CN(Cc1ccc(F)cc1)CN2 > 76.9 µM
COc1ccc(N2CCn3c2nc2c3c(=O)n(CCCc3ccccc3)c(=O)n2C)c(OC)c1 > 76.9 µM
NC(=O)c1ccsc1NC(=O)COC(=O)c1ccccc1NCc1ccco1 > 76.9 µM
COc1ccccc1CNc1nc2ccccc2n1CCN1CCCCC1 > 76.9 µM
